PubChem BioAssay AID1508624 (National Center for Advancing Translational Sciences (NCATS), 2021)
In all, about 48,000 compounds went through this assay and about 120 (0.25%) were called active. About 4% were inconclusive and are not listed. Calls follow the shape of the dose curve; as a rule, active = well fitted activation curve with a large enough effect; inconclusive = small, poorly fitted or top-dose-only effect, or another doubt; inactive = no such curve, though single readings can be large or run the other way. Some of the results follow.

Test: Primary qHTS for Identification of Small Molecule Activators of Huntingtin-Antisense Promoter Activity; also: nearly all actives have a fitted effect of over 55% in size
Settings: HEK293 HTT-AS promoter firefly luciferase reporter, 24 h; series mostly up to 57.5 µM; activity change, positive = activation: at the top concentration
Summary of the method: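 Quantitative HTS used concentration series of up to 57.5 uM final on HEK293 luciferase reporter cells, 24 h at 37 degrees C. Readout was Dual-Glo firefly luminescence.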

Activity change, positive = activation, inactive:
CCCn1cc(S(=O)(=O)c2ccc(C)cc2)c(=O)c2cc(F)c(N3CCCC3)cc21 -2.37%
COc1cc(NC(=O)c2ccc(C)c(Cl)c2)ccc1NC(=O)c1cc2ccccc2o1 14.1%
CCOc1ccccc1Nc1ncnc2c1cnn2-c1ccc(C)cc1 -32.8%
CC1CN(C(=O)N2CCC(C(=O)NCCCc3ccccc3)CC2)c2cc(Cl)ccc2O1 (stereo not given) -31.5%
CCOc1ccccc1Nc1nc2ccccc2c2nncn12 -6.52%
COc1cccc2c1cc1c(=O)n(CC(=O)N3CCN(c4cccc(C)c4C)CC3)nc(C)n12 -2.71%
COc1ccc(CCNC(=O)CCc2c(C)nc3c4c(C)cc(C)nc4nn3c2C)cc1OC -7.11%
CCOc1ccc(CNC(=O)c2ccc3oc(=O)n(Cc4ccccc4)c3c2)cc1 -26.2%
CC(=O)c1c(C)oc2ccc(N(C(=O)Oc3ccccc3)S(=O)(=O)c3ccc(Cl)cc3)cc12 11.9% [at 11.5 µM, percent change from vehicle, -100% = no light]
Cc1ccc(CNC(=O)C2CCN(S(=O)(=O)N3CCCCC3)CC2)cc1 -16.2%
Cc1ccc(Cn2nnc3c(=O)[nH]c(C4CCN(C(=O)Cc5ccccc5F)CC4)nc32)cc1 -34.2%
CCc1cccc(NS(=O)(=O)c2c(C)[nH]c(=O)[nH]c2=O)c1 -2.28%
CC1CCN(S(=O)(=O)c2ccc3c(c2)CCN3C(=O)Nc2ccccc2Br)CC1 -0.945%
COc1ccc2c(c1)cc(CNc1ccc(OC)c(OC)c1)c(=O)n2CC(=O)Nc1ccccc1C -10.9%
CCc1ccc(C(=O)c2cn(CC(=O)Nc3ccc4c(c3)OCCO4)c3ccc(F)cc3c2=O)cc1 -28%
Cc1ccc(NCc2cccn2-c2nnc(N3CCC(C(=O)NCCc4ccc(Cl)cc4)CC3)s2)cc1 -31.9%
COc1ccc(-n2c(C)nc3c(cnn3-c3ccc(F)cc3)c2=O)cc1 -30.5%
CCCCN(CC)CCCNC(=O)c1c(C)oc2ncnc(N3CCOCC3)c12 -10.2%
CCc1nn2c(=O)cc(COC(=O)c3cccc(NC(=O)CCc4ccccc4)c3)nc2s1 15.5%
CCn1cc(/C=C(\NC(=O)c2ccc(OC)cc2)C(=O)NCCCn2ccnc2)c2ccccc21 -15.7%
COc1ccccc1CNC(=O)C1CCN(c2nc3ccc(Cl)cc3[nH]2)CC1 -17%
CCCCc1ccc(-n2nc3cc(C)c(NC(=O)c4ccc(C#N)cc4F)cc3n2)cc1 15.3%
COc1cc2c(=O)n(CCC(=O)NCC3CCCO3)c(=O)n(CC(=O)Nc3ccccc3C)c2cc1OC (stereo not given) 7.12%
CCc1nn(CC(=O)NCCc2ccc(OC)cc2OC)c(=O)c2cc3occc3n12 -16.8%
Cc1c(C(=O)NCc2ccc(Cl)cc2)oc2ccc3c(c12)C(=O)CC(C)(C)O3 25.2%
CCCCOc1ccc(CNC(=O)c2cccc(NC(=O)N3CCSc4ncccc43)c2)cc1 -41.3%
Cc1ccc(CNC(=O)CSc2ncc3c(n2)-c2cc(Cl)ccc2N(C)S3(=O)=O)cc1 -2.85%
COc1nc(C)nc(Cl)c1NC1=NCCN1
COc1ccc(-n2ncc3c(NCCCOC(C)C)ncnc32)cc1 11.5%
CCCCNC(=O)C1CCCN(S(=O)(=O)CCC)C1 (stereo not given) -10.9%
CCOc1ccccc1C1CC(=O)Nc2c1c(=O)n(C)c1ncnn21 (stereo not given) -9.56%
O=C(CCc1nc(CN2CCN(S(=O)(=O)c3ccc(Br)cc3)CC2)no1)N1CCCCC1 -18.3%
COc1cc2cc(CNc3ccccc3)c(=O)n(CC(=O)Nc3cccc(Cl)c3C)c2cc1OC -4.19%
CO/N=C(/C(=O)N[C@@H]1C(=O)N2C(C(=O)OCOC(=O)C(C)(C)C)=C(C)CS[C@H]12)c1csc(N)n1 -8.07%
Cc1ccc(NC(=O)c2ccc(CN3CCN(C)CC3)cc2)cc1Nc1nc(-c2cccnc2)cs1 20.8%
COc1cc(NC(=O)Cn2c(=O)n(CC3CCC(C(=O)NCCc4ccccc4)CC3)c(=O)c3ccccc32)cc(OC)c1 (stereo not given) -12.2%
COc1cccc(Cn2cc(C(=O)c3ccccc3)c(=O)c3cc4c(cc32)OCO4)c1 -31.2%
CCOc1cccc2sc(N(Cc3cccnc3)C(=O)c3ccc(C#N)cc3)nc12 -16.8%
COc1ccc(NC(=O)CC2NCCNC2=O)c(OC)c1 (stereo not given) -11.7%
Cc1c(CC(=O)NCc2ccc(F)cc2)c(=O)oc2cc(O)c(Cl)cc12 -19.2%
CCOC(=O)c1c(NC(=O)C2c3ccccc3Oc3ccccc32)sc(C)c1C -31.7%
O=C(NCc1ccccc1Cl)c1ccc2oc(=O)n(Cc3ccccc3)c2c1 -29.8%
Cc1cc(C)n(-c2nc3ccccc3nc2N2CCN(c3cccc(C(F)(F)F)c3)CC2)n1 -2.45%
Cc1cccc(-n2nc(C)c(C(=O)Nc3cc(C)ccc3C)c2-n2cccc2)c1 -28.5%
COC(=O)c1cc(-c2ccc(C)cc2)c2c(=O)n(C)c(=O)n(C)c2n1 -0.395%
